Data reported in US8592383B2, “Cycloalkyl-fused tetrahydroquinolines as CRTH2 receptor modulators” (Merck Sharp & Dohme Corp., priority 2011, dated 2013).

What follows are compounds tested against T1, hCRTH2 (Homo sapiens, UniProt Q9Y5Y4) (assay: biochemical). Settings: Ki (nM), Table A; Radioligand Binding Assay A, [3H]PGD2, HEK-hCRTH2 membranes.
T1 sequence (Q9Y5Y4 1-395): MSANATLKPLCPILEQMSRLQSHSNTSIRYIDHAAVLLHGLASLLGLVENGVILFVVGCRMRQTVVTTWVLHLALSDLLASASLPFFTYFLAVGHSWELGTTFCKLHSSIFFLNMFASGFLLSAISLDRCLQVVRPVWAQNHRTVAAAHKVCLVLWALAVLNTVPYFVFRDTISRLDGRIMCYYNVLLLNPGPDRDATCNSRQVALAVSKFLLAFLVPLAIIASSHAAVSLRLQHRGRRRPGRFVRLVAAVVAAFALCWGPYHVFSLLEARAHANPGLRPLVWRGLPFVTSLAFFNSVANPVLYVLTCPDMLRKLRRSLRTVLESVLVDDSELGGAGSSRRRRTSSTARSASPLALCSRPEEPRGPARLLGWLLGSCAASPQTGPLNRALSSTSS

Row | Structure (SMILES) | Ki
1 | O=C(O)CCCN(CC1CCC1)C1c2ccccc2N(C(=O)c2ccc(OC(F)(F)F)cc2)C2CCCC12 (racemic) [compound 122, 4-[(cyclobutylmethyl)[cis,cis-2,3,3a,4,9,9a-hexahydro-4-[4-(trifluoromethoxy)benzoyl]-1H-cyclopenta[b]quinolin-9-yl]amino]butanoic acid] | 20.1 to 200 nM
2 | O=C(O)CCCN(CC1CCCC1)C1c2ccccc2N(C(=O)c2ccc(OC(F)(F)F)cc2)C2CCCC12 (racemic) [compound 123, 4-[(cyclopentylmethyl)[cis-2,3,3a,4,9,9a-hexahydro-4-[4-(trifluoromethoxy)benzoyl]-1H-cyclopenta[b]quinolin-9-yl]amino]butanoic acid] | 20.1 to 200 nM
3 | O=C(O)CCCN(Cc1ncco1)C1c2ccccc2N(C(=O)c2ccc(OC(F)(F)F)cc2)C2CCCC12 (racemic) [compound 127, 4-[[cis,cis-2,3,3a,4,9,9a-hexahydro-4-[4-(trifluoromethoxy)benzoyl]-1H-cyclopenta[b]quinolin-9-yl](2-oxazolylmethyl)amino] butanoic acid] | 20.1 to 200 nM
4 | O=C(O)CCCN(CCCC(=O)O)C1c2ccccc2N(C(=O)c2ccc(OC(F)(F)F)cc2)C2CCCC12 (racemic) [compound 128, 4,4′-[[cis,cis-2,3,3a,4,9,9a-hexahydro-4-[4-(trifluoromethoxy)benzoyl]-1H-cyclopenta[b]quinolin-9-yl]imino]bisbutanoic acid] | 201 to 7500 nM
5 | O=C(O)CCCN(c1ccccc1)[C@@H]1c2ccccc2N(C(=O)c2ccc(OC(F)(F)F)cc2)[C@@H]2CCC[C@H]12 (racemic) [compound 129, 4-[[cis,cis-2,3,3a,4,9,9a-hexahydro-4-[4-(trifluoromethoxy)benzoyl]-1H-cyclopenta[b]quinolin-9-yl]phenylamino]butanoic acid] | 20.1 to 200 nM
6 | CC(OC(=O)N1c2ccccc2C(N(C(=O)CCC(=O)O)C2CC2)C2CCCC21)c1ccc(OC(F)(F)F)cc1 (racemic) [compound 140, 4-[1-[4-(trifluoromethoxy)phenyl]ethyl] cis, cis-[(3-carboxy-1-oxopropyl)cyclopropylamino]-1,2,3,3a,9,9a-hexahydro-4H-cyclopenta[b]quinoline-4-carboxylate] | 20.1 to 200 nM
7 | COc1ccc(C(C)OC(=O)N2c3ccccc3C(N(C(=O)CCC(=O)O)C3CC3)C3CCCC32)cc1 (racemic) [compound 143, 4-[1-(4-methoxyphenyl)ethyl] cis, cis-[(3-carboxy-1-oxopropyl)cyclopropylamino]-1,2,3,3a,9,9a-hexahydro-4H-cyclopenta[b]quinoline-4-carboxylate] | 20.1 to 200 nM
8 | O=C(CCC(=O)N(C1CC1)[C@H]1c2cc(F)ccc2N(C(=O)c2ccc(OC(F)(F)F)cc2)[C@H]2CCC[C@H]21)NS(=O)(=O)C1CC1 (single isomer, unassigned) [11A] | 20.1 to 200 nM
9 | CCN(C(=O)CCC(=O)NS(=O)(=O)C1CC1)C1c2ccccc2N(C(=O)c2ccc(SC(F)(F)F)cc2)C2CCC12 (single isomer, unassigned) [11B, N1-(cyclopropylsulfonyl)-N4-ethyl-N4-(cis,cis-3-(4-(trifluoromethylthio)benzoyl)-1,2,2a,3,8,8a-hexahydrocyclobuta[b]quinolin-8-yl)succinamide] | 20.1 to 200 nM
10 | CCc1ccc(C(=O)N2c3ccccc3C(N(CC)C(=O)CCC(=O)O)C3CCCC32)cc1 (single isomer, unassigned) [17AE, 4-[ethyl[cis,cis-4-(4-ethylbenzoyl)-2,3,3a,4,9,9a-hexahydro-1H-cyclopenta[b]quinolin-9-yl]amino]-4-oxobutanoic acid] | 201 to 7500 nM
11 | CCN(C(=O)CCC(=O)O)C1c2ccccc2N(C(=O)c2cc(F)c(F)c(F)c2)C2CCCC12 (single isomer, unassigned) [17AG, 4-[ethyl[cis,cis-2,3,3a,4,9,9a-hexahydro-4-(3,4,5-trifluorobenzoyl)-1H-cyclopenta[b]quinolin-9-yl]amino]-4-oxobutanoic acid] | 20.1 to 200 nM
12 | O=C(O)CCC(=O)N(C1CC1)C1c2ccccc2N(C(=O)c2ccc(F)cc2F)C2CCCC21 (single isomer, unassigned) [17BV, 4-[cyclopropyl[cis,cis-4-(2,4-difluorobenzoyl)-2,3,3a,4,9,9a-hexahydro-1H-cyclopenta[b]quinolin-9-yl]amino]-4-oxobutanoic acid] | 5.1 to 20 nM
13 | O=C(O)CCC(=O)N(C1CC1)C1c2ccccc2N(C(=O)c2cccc(F)c2)C2CCCC21 (single isomer, unassigned) [17BW, 4-[cyclopropyl[cis,cis-4-(3-fluorobenzoyl)-2,3,3a,4,9,9a-hexahydro-1H-cyclopenta[b]quinolin-9-yl]amino]-4-oxobutanoic acid] | 5.1 to 20 nM
14 | O=C(O)CCC(=O)N(C1CC1)C1c2cc(F)c(Cl)cc2N(C(=O)c2ccc(OC(F)(F)F)cc2)C2CCCC21 (single isomer, unassigned) [17BX, 4-[[cis,cis-6-chloro-7-fluoro-2,3,3a,4,9,9a-hexahydro-4-[4-(trifluoromethoxy)benzoyl]-1H-cyclopenta[b]quinolin-9-yl]cyclopropylamino]-4-oxobutanoic acid] | 201 to 7500 nM
15 | O=C(O)COC(=O)N(C1CC1)C1c2cc(F)c(Cl)cc2N(C(=O)c2ccc(OC(F)(F)F)cc2)C2CCCC21 (single isomer, unassigned) [17BZ, [[[[cis,cis-6-chloro-7-fluoro-2,3,3a,4,9,9a-hexahydro-4-[4-(trifluoromethoxy)benzoyl]-1H-cyclopenta[b]quinolin-9-yl]cyclopropylamino]carbon-yl]oxy]acetic acid] | 201 to 7500 nM

Results, then the compound that gave them:

Row | Ki | Structure (SMILES)
16 | 5.1 to 20 nM | O=C(O)CCCN(CCc1ccccc1)C1c2ccccc2N(C(=O)c2ccc(OC(F)(F)F)cc2)C2CCCC12 (racemic) [compound 126, 4-[[cis,cis-2,3,3a,4,9,9a-hexahydro-4-[4-(trifluoromethoxy)benzoyl]-1H-cyclopenta[b]quinolin-9-yl](2-phenylethyl)amino]butanoic acid]
17 | 5.1 to 20 nM | CN(CC(=O)O)C(=O)N(C1CC1)[C@@H]1c2ccccc2N(C(=O)c2ccc(OC(F)(F)F)cc2)[C@@H]2CCC[C@@H]21 (relative stereo) [compound 35, N-[[Cyclopropyl[cis,cis-2,3,3a,4,9,9a-hexahydro-4-[4-(trifluoromethoxy)benzoyl]-1H-cyclopenta[b]quinolin-9-yl]amino]carbonyl]-N-methylglycine]
18 | 1 to 5 nM | O=C(O)CCC(=O)N(C1CC1)C1c2ccc(Cl)cc2N(C(=O)OCc2ccccc2)C2CCCC21 (single isomer, unassigned) [9A, 4-(phenylmethyl) cis,cis-[(3-carboxy-1-oxopropyl)cyclopropylamino]-6-chloro-1,2,3,3a,9,9a-hexahydro-4H-cyclopenta[b]quinoline-4-carboxylate]
19 | 5.1 to 20 nM | O=C(O)CCC(=O)N(C1CC1)[C@H]1c2cc(F)ccc2N(C(=O)OCc2ccccc2)[C@H]2CCC[C@H]21 (single isomer, unassigned) [9B]
20 | 5.1 to 20 nM | CCN(C(=O)CCC(=O)NS(C)(=O)=O)C1c2ccccc2N(C(=O)c2ccc(SC(F)(F)F)cc2)C2CCC12 (single isomer, unassigned) [11C, N1-ethyl-N4-(methylsulfonyl)-N1-(cis,cis-3-(4-(trifluoromethylthio)benzoyl)-1,2,2a,3,8,8a-hexahydrocyclobuta[b]quinolin-8-yl)succinamide]
21 | 5.1 to 20 nM | O=C(O)CCC(=O)N(C1CC1)C1c2ccccc2N(C(=O)c2cccs2)C2CCCC21 (single isomer, unassigned) [17BN, 4-[cyclopropyl[cis,cis-2,3,3a,4,9,9a-hexahydro-4-(2-thienylcarbonyl)-1H-cyclopenta[b]quinolin-9-yl]amino]-4-oxobutanoic acid]
22 | 5.1 to 20 nM | O=C(O)CCC(=O)N(C1CC1)C1c2ccccc2N(C(=O)c2ccc(OC(F)F)cc2)C2CCCC21 (single isomer, unassigned) [17BP, 4-[cyclopropyl[cis,cis-4-[4-(difluoromethoxy)benzoyl]-2,3,3a,4,9,9a-hexahydro-1H-cyclopenta[b]quinolin-9-yl]amino]-4-oxobutanoic acid]
23 | 5.1 to 20 nM | O=C(O)CCC(=O)N(C1CC1)C1c2ccccc2N(C(=O)c2ccc3ccccc3n2)C2CCCC21 (single isomer, unassigned) [17BQ, 4-[cyclopropyl[cis,cis-2,3,3a,4,9,9a-hexahydro-4-(2-quinolinylcarbonyl)-1H-cyclopenta[b]quinolin-9-yl]amino]-4-oxobutanoic acid]
24 | 5.1 to 20 nM | O=C(O)CCC(=O)N(C1CC1)C1c2ccccc2N(C(=O)c2ccccc2F)C2CCCC21 (single isomer, unassigned) [17BR, 4-[cyclopropyl[cis,cis-4-(2-fluorobenzoyl)-2,3,3a,4,9,9a-hexahydro-1H-cyclopenta[b]quinolin-9-yl]amino]-4-oxobutanoic acid]
25 | 1 to 5 nM | O=C(O)CCC(=O)N(C1CC1)C1c2ccccc2N(C(=O)c2ccc3ccccc3c2)C2CCCC21 (single isomer, unassigned) [17BU, 4-[cyclopropyl[cis,cis-2,3,3a,4,9,9a-hexahydro-4-(2-naphthalenylcarbonyl)-1H-cyclopenta[b]quinolin-9-yl]amino]-4-oxobutanoic acid]
26 | 1 to 5 nM | O=C(O)CCC(=O)N(C1CC1)C1c2cc(F)c(Cl)cc2N(C(=O)c2ccc(OC(F)(F)F)cc2)C2CCCC21 (single isomer, unassigned) [17BY, 4-[[cis,cis-6-chloro-7-fluoro-2,3,3a,4,9,9a-hexahydro-4-[4-(trifluoromethoxy)benzoyl]-1H-cyclopenta[b]quinolin-9-yl]cyclopropylamino]-4-oxobutanoic acid]
